# The campaign covered roughly 43,000 compounds. About 200 (0.47%) were called active. About 12% were inconclusive and are not listed. Calls come from the whole dose curve; as a rule, active = well fitted cell-killing curve with a large enough effect; inconclusive = small, poorly fitted or top-dose-only effect, or effect the other way; inactive = flat fitted curve, though single readings scatter. Some of the results follow.
# Assay: Cell viability qHTS assay in S16 Pmp22-F2sN cells; note: nearly all actives have a fitted effect of over 65% in size
# Conditions: S16 Pmp22-F2sN Schwann cells (luciferase reporters placed in the Pmp22 gene) viability, CellTiter-Glo, 24 h; series mostly up to 57.5 µM; activity change, negative = cytotoxicity: at the top concentration
# How it was run: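 CellTiter-Glo counter-screen, qHTS, 1536-well. Cells: S16(c9) Pmp22-F2sN, 500-1,000/well in DMEM + 10% FBS. Cpd 23 nL pin transfer, 24 h, 37C/5% CO2. Read: luminescence, CCD imager.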
# % is set by controls: 0 for no effect and ±100 for the full control effect.
row,Compound,"activity change, negative = cytotoxicity"
1,CCc1cccc(NC(=O)c2c(C)oc3nc(C)nc(N4CCCC4)c23)c1,inactive: 1.21%
2,Cc1ccc(NC(=O)C(=O)NCC2(c3ccccc3)CCCC2)cc1C,inactive: -29.6%
3,CCc1ccc(NCc2cc3ccc(OC)cc3n(CC(=O)Nc3ccc(C)c(Cl)c3)c2=O)cc1,inactive: 14.8%
4,COc1ccc(C(=O)N(Cc2cc(OC)c(OC)c(OC)c2)C2CCS(=O)(=O)C2)cc1Cl (configuration not stated),inactive: 1.3%
5,CCc1ccc(OCc2cc(=O)n3cc(C)sc3n2)cc1,inactive: -1.16%
6,CCOc1ccc2oc(=O)cc(CN3CCN(c4ccccc4OC)CC3)c2c1,inactive: -11.4%
7,COc1cc(OC)c(OC)cc1CNCCCSc1nnnn1C,inactive: 5.26%
8,COc1cccc(NC(=O)Cn2c(=O)n(CCc3ccc(OC)c(OC)c3)c(=O)c3ccccc32)c1,inactive: 19.1%
9,Cn1c(C(=O)Nc2ccc(OC(F)(F)F)cc2)cc2c(=O)n3ccccc3nc21,inactive: 0.119%
10,COc1ccccc1CNC(=O)c1nnn(CC(=O)Nc2c(C)cccc2C)c1N,inactive: -3.09%
11,CC(=O)c1ccc(N2CCN(c3ncnc4c3cnn4-c3cc(Cl)ccc3C)CC2)cc1,inactive: 0.9%
12,Cc1ccc(CNC(=O)CN2N=C(c3ccccc3)CCC2=O)cc1,inactive: 10.1%
13,CCc1cccc(NC(=O)c2ccc3c(c2)c(C)c(C)n3Cc2ccc(F)cc2)c1,inactive: -7.54%
14,CCOc1ccccc1NC(=O)c1c(NC(=O)Cc2ccc(OC)cc2)sc2c1CCC2,inactive: 1.44%
15,Cc1ccc(OCC(=O)Nc2cccc(C(=O)OCc3cc(=O)n4c(C)csc4n3)c2)cc1,inactive: 0.0787%
16,Cc1ccc(NC(=O)COc2ccc3oc4c(c3c2)CCCC4)cc1C,inactive: 1.28%
17,Cc1ccc(CN2COc3c(Cl)cc4c(-c5ccccc5)cc(=O)oc4c3C2)cc1,inactive: -7%
18,Cc1cccc(CSc2nnc3[nH]c(=O)cc(-c4ccccc4)n23)c1,inactive: -10.9%
19,COc1cc(-c2nc3ccc(Cl)cn3c2Nc2ccc3c(c2)OCCO3)ccc1O,inactive: -15%
20,O=C(c1ccc2c(c1)N(Cc1ccc(Cl)cc1)C(=O)c1ccccc1S2(=O)=O)N1CCN(c2ccccn2)CC1,inactive: 0.568%
21,Cc1cc(NC(=O)C2CCCN(S(=O)(=O)c3cccc4nsnc34)C2)ccc1Br (configuration not stated),inactive: 0.301%

row,Compound,"activity change, negative = cytotoxicity"
1,O=C(Nc1cc(Cl)cc(Cl)c1)c1ccc(F)c(S(=O)(=O)N2CCN(c3ccccc3F)CC2)c1,inactive: -17.1%
2,CCOc1ccc(NC(=O)N2CCC(N3CCCCC3)CC2)cc1,inactive: 15.9%
3,COc1ccc(-n2c(=O)c3ccc(C(=O)NCc4ccc(C)cc4)cc3n(Cc3ccc(Cl)cc3)c2=O)cc1,inactive: 9.77%
4,COCCn1c(C)cc(O)c(C(c2ccc(F)cc2)N2CCC(C)CC2)c1=O (configuration not stated),inactive: -2.89%
5,Cc1cccc(CSc2ncccc2C(=O)O)c1,inactive: 0.558%
6,CCOc1ccccc1NC(=O)Cn1c(=O)n(C(C)C)c(=O)c2oc3ccccc3c21,inactive: -1.35%
7,COc1cccc(NC(=O)Cn2c(=O)n(-c3ccccc3)c(=O)c3c2c2cc(OC)ccc2n3C)c1,inactive: 3.29%
8,Cc1ccc(N(CC(=O)Nc2ccc(C)c(Cl)c2)S(=O)(=O)c2cccs2)cc1,inactive: 1.54%
9,CC(=O)c1sc2c(c1C)c(=O)n(-c1ccc(Cl)cc1)c(=O)n2Cc1cc(=O)n2cc(Cl)ccc2n1,inactive: -13.1%
10,Cc1nn(C(=O)c2ccc(Cl)cc2)c(C)c1Sc1ccc(Cl)cc1,inactive: 0.469%
11,CCCCOc1ccc(OC(=O)c2sc3ncn(Cc4cccc(F)c4)c(=O)c3c2C)cc1,inactive: 1.74%
12,COc1cc2nc(SCc3ccc(Cl)cc3)n3nc(CCn4nc(C)cc4C)nc3c2cc1OC,inactive: -2.61%
13,CCCSc1nc2sc3c(c2c(=O)n1-c1ccccc1)CCC(C)C3 (configuration not stated),inactive: -2.21%
14,COc1ccc(OC)c(NC(=O)CCn2cnnn2)c1,inactive: -0.0052%
15,COc1ccc(CCNC(=O)c2cc(-c3ccc(C)cc3)nc3n[nH]c(-c4ccccc4)c23)cc1OC,inactive: -9.14%
16,COc1ccc(CNC(=O)c2cc3c(=O)[nH]c4ccc(C)cc4c3s2)c(OC)c1,inactive: 19.7%
17,COc1ccc(-c2oc3ncn4nc(-c5cccc(C)c5)nc4c3c2-c2ccc(OC)cc2)cc1,inactive: 3.48%
18,COc1cc(C(=O)Nc2nnc(S(=O)(=O)N(C)c3ccccc3)s2)cc(OC)c1OC,inactive: -1.18%
19,Cc1ccc(CN2C(=O)c3ccccc3Sc3ccc(C(=O)NC4CCCCC4)cc32)cc1,inactive: -0.15%
20,Cc1ccc(-c2nc3n(n2)C(c2ccccc2C)C=C(c2ccc(Cl)cc2)N3)cc1 (configuration not stated),inactive: -3.79%
21,COc1ccccc1CNC(=O)CS(=O)(=O)c1cccc2nsnc12,inactive: 1.47%

row,Compound,"activity change, negative = cytotoxicity"
1,COc1ccc(CNC(=O)C2CCN(c3nc4ccccc4[nH]3)CC2)c(OC)c1,inactive: -1.92%
2,COc1cc(CN(C(=O)COc2ccc(Br)cc2)c2ccccn2)cc(OC)c1OC,inactive: -13.3%
3,Cc1ccn2c(Nc3ccc(F)cc3)c(-c3ccc(C)o3)nc2c1,inactive: -14.6%
4,O=C(CSc1ncc(CO)n1Cc1ccccc1)Nc1nc2ccccc2s1,inactive: -28.5%
5,O=C(NC1CC(=O)N(c2ccc(F)cc2)C1)c1cccs1 (configuration not stated),inactive: -5.57%
6,CCc1ccccc1NC(=O)C1(S(=O)(=O)c2ccc(Cl)cc2)CC1,inactive: 7.42%
7,COc1ccc(-c2nsc(NC(=O)COc3ccc(C)c(C)c3)n2)cc1,inactive: 3.35%
8,Cc1cc(C)cc(NC(=O)CN2C(=O)CSc3ccc(S(=O)(=O)N(C)C)cc32)c1,inactive: 23.8%
9,Cc1ccc(OCC(=O)Nc2ccc(Cl)c(-c3nc4ncccc4o3)c2)cc1C,inactive: 18.5%
10,CCOC(=O)c1c(C)oc2ncnc(Nc3ccc(F)cc3Cl)c12,inactive: 7.83%
11,CN(C)S(=O)(=O)c1ccc2c(c1)N(CC(=O)NCc1ccccc1)C(=O)C1CCCCN21 (configuration not stated),inactive: 7.11%
12,Cc1ccccc1CCNC(=O)c1ccc2c(c1)c(C)c(C)n2C,inactive: 9.33%
13,COc1ccccc1CNC(=O)CCn1c(=O)c2ccccc2n(CC(=O)Nc2ccc(C)cc2)c1=O,inactive: 6.74%
14,Cc1cccc(CNC(=O)C2CCCN(S(=O)(=O)c3cn(C)cn3)C2)c1 (configuration not stated),inactive: -5.01%
15,Cn1nnnc1SCCCNCc1ccc(-c2ccc(Br)cc2)o1,inactive: -28%
16,CCCCCn1c(=O)[nH]c2cc(C(=O)Nc3cc(OC)cc(OC)c3)ccc2c1=O,inactive: 3.43%
17,Cc1ccc2oc(=O)c3cc(C(=O)N4CCN(c5ccccc5)CC4)sc3c2c1,inactive: -1.66%
18,Cc1nn(S(=O)(=O)c2ccc(C(C)C)cc2)c(C)c1S(=O)(=O)N1CCCCCC1,inactive: -12.5%
19,Cc1ccc(NC(=O)CSc2nc3ccccc3nc2Cc2ccccc2F)cc1F,inactive: 14.2%
20,CCCCCNC(=O)c1c[nH]c2ccc(S(=O)(=O)N3CCC(C)CC3)cc2c1=O,inactive: -2.83%
